In PubChem BioAssay AID1476 (National Center for Advancing Translational Sciences (NCATS), 2009):
Several values for one entry are separate records, joined by “and”; a condition that tells them apart may be missing. Equal entries are not always repeated. The whole screen tested about 200,000 compounds, of which about 4,500 (2.2%) were called active. Inconclusive results, whose numbers are uncertain, are shown with a selection of clear calls. The call rests on the fitted dose curve; in most records, active means well fitted inhibition curve with a large enough effect; inconclusive means small, poorly fitted or top-dose-only effect, or effect the other way; inactive means flat fitted curve, though single readings scatter. A potency beside an inconclusive call is a rough fit, not a confirmed value.

biological target: Cruzipain (Trypanosoma cruzi) (UniProt P25779); assay: qHTS Assay for Promiscuous and Specific Inhibitors of Cruzain (without detergent); conditions: purified cruzain, Z-FR-AMC fluorescence, no detergent; further: nearly all actives have a fitted effect of over 40% in size;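 on max response, negative = inhibition: plate controls were enzyme without inhibitor for no effect and buffer without enzyme for full effect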
Method in brief: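 Purified cruzain at 1.5 nM, pre-incubated 15 min with compound at room temperature in 100 mM sodium acetate pH 5.5, 5 mM DTT, 0.00005% Triton X-100. Reaction started with 2 uM Z-FR-AMC; AMC fluorescence increase over 60 s gives rate.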
Potency means the concentration at half of the fitted maximal effect; tags describe the fitted curve by direction and shape.

UniProt P25779, sequence (P25779 whole entry, looked up): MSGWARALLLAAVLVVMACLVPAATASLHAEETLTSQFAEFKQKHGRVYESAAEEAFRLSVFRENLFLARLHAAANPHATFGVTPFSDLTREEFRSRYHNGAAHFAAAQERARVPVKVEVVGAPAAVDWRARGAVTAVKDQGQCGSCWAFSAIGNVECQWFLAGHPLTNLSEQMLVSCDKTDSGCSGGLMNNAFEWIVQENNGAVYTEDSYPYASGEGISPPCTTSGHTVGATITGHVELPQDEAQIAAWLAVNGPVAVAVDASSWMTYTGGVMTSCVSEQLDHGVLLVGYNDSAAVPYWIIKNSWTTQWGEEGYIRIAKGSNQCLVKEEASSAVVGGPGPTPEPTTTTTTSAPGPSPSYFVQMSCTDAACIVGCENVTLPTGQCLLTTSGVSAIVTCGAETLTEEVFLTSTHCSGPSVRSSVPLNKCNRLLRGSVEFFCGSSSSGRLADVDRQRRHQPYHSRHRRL

Row | Structure (SMILES) | max response, negative = inhibition | Potency
1 | CC1CN(S(=O)(=O)c2ccc(C(=O)Nc3nnc(-c4ccc5c(c4)CCCC5)o3)cc2)CC(C)O1 (stereo unspecified) | inactive: 17.8% | 
2 | Fc1ccc(-n2ncc3c(NCCCn4ccnc4)ncnc32)cc1 | inactive: 2.24% | 
3 | CCC(C)NC(=O)c1ccccc1NC(=O)Nc1ccccc1 (stereo unspecified) |  | inconclusive: 39.8 µM [inhibitor, single point]
4 | Cc1cc(SCc2sc(-c3ccc(C(F)(F)F)c(F)c3)nc2C)ccc1OCC(=O)O |  | inconclusive: 3.16 µM [activator, partial curve]
5 | Cc1cc(C(C)(C)C)oc1C(=O)NCCCNC(=O)c1oc(C(C)(C)C)cc1C |  | inconclusive: 25.1 µM [activator, partial curve]
6 | Oc1ccc(C=Nc2ccc3ncccc3c2)c(O)c1 |  | active: 15.8 µM
7 | Cc1ccc(Cl)cc1NS(=O)(=O)c1ccc2c(c1)NC(=O)CCS2 | inactive: -16.5% | 
8 | N#CCSc1nc2c(sc(=S)n2Cc2ccco2)c(=O)n1-c1ccc(F)cc1 |  | inconclusive: 39.8 µM [inhibitor, single point]
9 | CCn1c(SCc2ccc(C(=O)Nc3nccs3)cc2)nnc1-c1ccc(NC(C)=O)cc1 |  | inconclusive: 39.8 µM [activator, single point]
10 | Cc1ccc(S(=O)(=O)Cc2sc3ccccc3[n+]2C)cc1 |  | inconclusive: 31.6 µM [inhibitor, single point]
11 | CCOC(=O)N1CCC(NC(=O)CSCc2nc(-c3ccc(OC)c(OC)c3)oc2C)CC1 |  | inconclusive: 31.6 µM [activator, single point]
12 | COc1ccc(OC)c(CCNC(=O)CCc2cn(Cc3cc(C)ccc3C)c3ccccc23)c1 | inactive: -18.3% | 
13 | COc1ccc(N(CC(=O)N/N=C/c2ccc(-c3ccc([N+](=O)[O-])cc3)o2)S(=O)(=O)c2ccc(C)cc2)cc1 |  | active: 3.98 µM
14 | CC(C)CC(c1nnnn1CC1CCCO1)N1CCN(c2cccc(Cl)c2)CC1 (stereo unspecified) |  | inconclusive: 39.8 µM [activator, single point]
15 | COc1ccccc1-c1nc(C(N)=O)c2[nH]c(=O)n(-c3cccc(C)c3)c2n1 |  | inconclusive: 31.6 µM [activator, single point]
16 | COCCOC(=O)C1=C(C)NC(=O)NC1c1cn(-c2ccccc2)nc1-c1ccccc1 (stereo unspecified) | inactive: 1.24% | 
17 | CC(CN1CCN(C)CC1)OC(=O)c1ccc(Cl)cc1Cl (stereo unspecified) | inactive: -4.45% | 
18 | CCOc1cc(/C=C2\N=C(C)OC2=O)cc(Br)c1OCCc1ccccc1 |  | inconclusive: 39.8 µM [activator, single point]
19 | CCCn1c(=O)c2sccc2n2c(CCCC(=O)NC3CCC(C)CC3)nnc12 (stereo unspecified) | inactive: -1.34% | 
20 | COC(=O)c1sccc1NC(=O)CSc1ccccc1NS(=O)(=O)c1ccc(Cl)cc1 |  | inconclusive: 39.8 µM [inhibitor, single point]
21 | CCCCOc1ccc(C(=O)NCCc2csc(-c3cccc(F)c3)n2)cc1 |  | inconclusive: 39.8 µM [activator, single point]

Row | Structure (SMILES) | max response, negative = inhibition | Potency
22 | CCOC(=O)c1cccc(NC(=O)c2cnc3ccccc3n2)c1 |  | inconclusive: 39.8 µM [activator, single point]
23 | Cc1ccsc1/C=N/N1CCN(C2c3ccccc3-c3ccccc32)CC1 |  | inconclusive: 39.8 µM [inhibitor, single point]
24 | Clc1ccc2c(c1)C(c1ccccc1Cl)=NCc1nnc(N3CCN(CCSc4ccccc4)CC3)n1-2 |  | inconclusive: 31.6 µM [activator, single point]
25 | Cc1ccc(CNC(=O)CN2C(=O)CCn3nc(-c4ccccc4)cc32)cc1 | inactive: 5.54% | 
26 | CCc1cccc2c(-c3ccccc3)nc(SCC(=O)Nc3ccccc3OC)nc12 |  | inconclusive: 6.31 µM [inhibitor, single point]
27 | O=C(Nc1ccccc1)N1CC[C@@]2(CCCN(C(=O)c3cc(C(F)(F)F)cc(C(F)(F)F)c3)C2)C1 |  | inconclusive: 39.8 µM [activator, single point]
28 | OCCN(CCO)c1ccc(C(c2ccccc2Cl)c2ccc(N(CCO)CCO)cc2Cl)c(Cl)c1 |  | inconclusive: 3.16 µM [activator, full curve]
29 | Cc1ccc(-n2ncc(C(=O)NCc3cccs3)c2C2CCN(C(=O)OC(C)(C)C)CC2)cc1 | inactive: 4.76% | 
30 | S=C(S)NCCCn1ccnc1 | inactive: -7% | 
31 | O=[N+]([O-])c1ccc(CSCc2ccc(Cl)cc2)cc1 | inactive: -4.01% | 
32 | ClC1=C(Cl)C2(Cl)C3C4C=CC(C4)C3C1(Cl)C2(Cl)Cl (stereo unspecified) | inactive: 4.03% and inactive: 8.37% | 
33 | COc1cccc2c1C(=O)c1c(O)c3c(c(O)c1C2=O)C[C@@](O)(C(=O)CO)C[C@@H]3OC1C[C@@H](N)[C@H](O)[C@H](C)O1 (stereo partly specified) |  | inconclusive: 20 µM [inhibitor, partial curve]
34 | CCCCCn1c(C(Cc2ccccc2)NC(C)=O)nc2ccccc21 (stereo unspecified) |  | inconclusive: 25.1 µM [activator, single point]
35 | CCn1ccc2cc(S(=O)(=O)N3CCC(C(=O)NCCc4ccccc4Cl)CC3)ccc21 |  | inconclusive: 39.8 µM [inhibitor, single point]
36 | CCOC(=O)c1c(C)[nH]c(C(=O)COC(=O)c2ccc(F)c(S(=O)(=O)N3CCOCC3)c2)c1C |  | inconclusive: 5.01 µM [activator, full curve, poor fit]
37 | OCCN1CC(O)C(O)C(O)C1CO (stereo unspecified) | inactive: 7.41% | 
38 | COc1cc2c(cc1OC)-c1cc(OCCN3CCOCC3)nc(=O)n1CC2 |  | inconclusive: 31.6 µM [inhibitor, single point]
39 | COc1ccc2c(COC(=O)CC3Sc4ccccc4NC3=O)cc(=O)oc2c1 (stereo unspecified) |  | inconclusive: 31.6 µM [inhibitor, single point]
40 | O=C(CSc1nccc(=O)[nH]1)Nc1ccc(F)c(Cl)c1 |  | inconclusive: 25.1 µM [inhibitor, single point]
41 | c1csc(Cc2nn3c(-c4n[nH]c5c4CCC5)nnc3s2)c1 |  | inconclusive: 12.6 µM [inhibitor, partial curve]
